Measurements from article PMC11783601, “Analogue-Sensitive Inhibition of Histone Demethylases Uncovers Member-Specific Function in Ribosomal Protein Synthesis” (Journal of the American Chemical Society, 2025).
“And” between values parts separate entries of the source, which are not always exact repeats. Identical values can stand only once.

Target: T1, KDM4A F185A (asKDM4A) in HEK293T cells (Homo sapiens, UniProt O75164, F185A)
T1 construct: we generated the F185A mutation in full-length KDM4A carrying all of the functional domains; host or cells: HEK293T
T1 sequence (O75164 1-1064 F185A): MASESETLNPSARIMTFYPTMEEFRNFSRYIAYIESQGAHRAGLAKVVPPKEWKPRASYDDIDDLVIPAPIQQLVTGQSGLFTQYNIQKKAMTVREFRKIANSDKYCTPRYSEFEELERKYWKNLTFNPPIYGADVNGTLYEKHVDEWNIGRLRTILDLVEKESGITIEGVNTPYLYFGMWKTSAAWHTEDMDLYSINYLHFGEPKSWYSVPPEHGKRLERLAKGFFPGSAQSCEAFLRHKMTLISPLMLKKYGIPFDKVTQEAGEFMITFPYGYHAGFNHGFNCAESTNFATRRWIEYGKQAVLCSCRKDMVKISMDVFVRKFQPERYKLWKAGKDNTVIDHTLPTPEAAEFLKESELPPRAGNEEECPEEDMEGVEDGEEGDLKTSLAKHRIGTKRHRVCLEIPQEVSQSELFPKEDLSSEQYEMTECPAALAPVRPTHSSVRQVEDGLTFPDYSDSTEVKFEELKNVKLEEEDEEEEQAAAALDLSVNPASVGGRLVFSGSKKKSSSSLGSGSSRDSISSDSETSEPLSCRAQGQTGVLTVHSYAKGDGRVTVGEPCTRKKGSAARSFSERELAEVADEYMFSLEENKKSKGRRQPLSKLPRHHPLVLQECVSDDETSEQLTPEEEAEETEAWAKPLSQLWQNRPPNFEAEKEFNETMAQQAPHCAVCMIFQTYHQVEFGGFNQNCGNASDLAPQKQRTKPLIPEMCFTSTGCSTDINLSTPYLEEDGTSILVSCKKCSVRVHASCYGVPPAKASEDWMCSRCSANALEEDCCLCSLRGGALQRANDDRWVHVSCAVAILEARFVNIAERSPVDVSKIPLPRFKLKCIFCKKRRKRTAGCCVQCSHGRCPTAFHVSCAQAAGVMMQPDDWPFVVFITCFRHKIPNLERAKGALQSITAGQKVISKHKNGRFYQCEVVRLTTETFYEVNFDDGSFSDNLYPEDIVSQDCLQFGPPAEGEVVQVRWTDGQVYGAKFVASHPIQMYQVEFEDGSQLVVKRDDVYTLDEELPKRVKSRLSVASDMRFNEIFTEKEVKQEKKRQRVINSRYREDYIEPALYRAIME
Experiment: Histone extraction, digestion and tandem mass spectrometry (relative abundance of histone modifications)
Format: cell-based
Experimental: HEK293T cells were transiently transfected with asKDM4A and treated with varying concentrations of 6A or 6B. […] To further confirm the activity of the enzyme–inhibitor pair, we performed tandem mass spectrometry of tryptic histones isolated from HEK293T cells expressing asKDM4A in the presence or absence of 100 μM 6A. […]
22. Histone extraction, digestion and tandem mass spectrometry
HEK 293-T cells (ATCC CRL-1573) were plated into 6-well plates (Corning) in DMEM (Corning) supplemented with 10% FBS (Corning) and 1X Antibiotic/Antimycin
(Penicillin/Streptomycin/Fungiozone) (Cytiva HyClone) in an incubator held at 37 °C with 5%
CO2. At 75% confluency, cells were transfected with 2.5 µg KDM4A F185A or Empty Vector with 5µg Thermo Turbofect (FERR0531). After 4 hours, the media was washed and 200 µM of 6A or equivalent volume of DMSO was added and left to incubate at 37 °C for 24 hours. Cells were then washed with 1X PBS (Corning) followed by trypsinization (Gibco TrypLE™ Express Enzyme). Collected cells were centrifuged at 3000xg for 3 minutes, followed by washing with 1X PBS and centrifuged for an additional 3000xg for 3 minutes. Histone proteins were extracted from the pellet as described by25 to ensure good-quality identification and quantification of single histone marks. Briefly, cell pellets were dissolved in 100 µL of cold 0.2 M H2SO4 and incubated for 2 hours rotating in a cold room (4 °C). Aliquots were then centrifuged at 3400xg for 5 minutes […]
at 4 °C and the supernatant was added to a fresh tube. 100% cold TCA was then added to a final volume of 33% volume/volume TCA/supernatant and left to incubate for 1 hour in a cold room (4 °C). Samples were then centrifuged at 3400xg for 5 min at 4 °C and the supernatant was discarded. The precipitate was then washed with cold acetone/0.1% HCl and centrifuged at 3400xg for 5 minutes at 4 °C. The supernatant was discarded, and the precipitate was washed with cold acetone and centrifuged at 3400xg for 5 minutes at 4 °C. The supernatant was discarded, and the pellet was dried using a vacuum centrifuge.
The pellet was dissolved in 50 mM ammonium bicarbonate, pH 8.0, and histones were subjected to derivatization using 5 µL of propionic anhydride and 14 µL of ammonium hydroxide (all Sigma Aldrich) to balance the pH at 8.0. The mixture was incubated for 15 min and the procedure was repeated. Histones were then digested with 1 µg of sequencing grade trypsin (Promega) diluted in 50mM ammonium bicarbonate (1:20, enzyme:sample) overnight at room temperature.
Derivatization reaction was repeated to derivatize peptide N-termini. The samples were dried in a […]
Sample desalting: Prior to mass spectrometry analysis, samples were desalted using a 96-well plate filter (Orochem) packed with 1 mg of Oasis HLB C-18 resin (Waters). Briefly, the samples were resuspended in 100 µl of 0.1% TFA and loaded onto the HLB resin, which was previously equilibrated using 100 µl of the same buffer. After washing with 100 µl of 0.1% TFA, the samples were eluted with a buffer containing 70 µl of 60% acetonitrile and 0.1% TFA and then dried in a […]
LC-MS/MS Acquisition and Analysis: Samples were resuspended in 10 µl of 0.1% TFA and loaded onto a Dionex RSLC […] (Thermo Scientific), coupled online with an Orbitrap Fusion Lumos (Thermo Scientific). Chromatographic separation was performed with a two-column system, consisting of a C-18 trap cartridge (300 µm ID, 5 mm length) and a picofrit analytical column (75 µm ID, 25 cm length) packed in-house with reversed-phase Repro-Sil Pur C18-AQ 3 µm resin. Peptides were separated using a 30 min gradient from 1-30% buffer B (buffer A: 0.1% formic acid, buffer B: 80% acetonitrile + 0.1% formic acid) at a flow rate of 300 nl/min.
The mass spectrometer was set to acquire spectra in a data-independent acquisition (DIA) mode.

[1] = HEK293T cells, KDM4A F185A + 6A, replicates 6A_1 and 6A_2
[2] = peptide form, samples 6A_1, 6A_2

## CCCCCCCCOC(=O)C(=O)NC(CC(C)C)C(=O)O [6A, L-Leu octyl-ester NOG]
[1]
  Relative abundance H2A_82_88 unmod: 100.0%
  Relative abundance H2B_1_29 1B.PEPSKSAPAPKKGSKKAISKAQKKDGKKR: 0.0%
  Relative abundance HLQLAIR(H2A_82_88) (peptide total): 100.0%
  Relative abundance unmod(H2A_1_88) (total): 100.0%
  Relative abundance unmod(H2B_1_29) (total): 0.0%
[2]
  Relative abundance, H2A1_1_11 K5ac: 13.4% and 13.0%
  Relative abundance, H2A1_1_11 unmod: 62.1% and 84.8%
  Relative abundance, H2A1_4_11 K5ac: 3.2% and 5.1%
  Relative abundance, H2A1_4_11 K9ac: 0.9% and 1.2%
  Relative abundance, H2A1_4_11 unmod: 95.2% and 80.1%
  Relative abundance, H2A1_36_42 K36ac: 0.048% and 0.0169%
  Relative abundance, H2A1_36_42 unmod: 100.0%
  Relative abundance, H2A3_36_42 unmod: 99.7% and 100.0%
  Relative abundance, H2AJ_4_11 K5acK9ac: 89.8% and 67.1%
  Relative abundance, H2AJ_4_11 K5me1: 2.7% and 5.5%
  Relative abundance, H2AJ_4_11 K9me1: 3.1% and 5.2%
  Relative abundance, H2AJ_4_11 unmod: 3.7% and 11.0%
  Relative abundance, H2AV_1_19 K4ac: 0.347% and 0.0%
  Relative abundance, H2AV_1_19 K4acK7ac: 0.0%
  Relative abundance, H2AV_1_19 K4acK7acK11acK15ac: 4.7% and 1.7%
  Relative abundance, H2AV_1_19 K4acK7acK15ac: 0.0069% and 0.0%
  Relative abundance, H2AV_1_19 K4acK11ac: 0.0%
  Relative abundance, H2AV_1_19 K4acK11acK15ac: 0.0%
  Relative abundance, H2AV_1_19 K4acK15ac: 0.0%
  Relative abundance, H2AV_1_19 K7ac: 1.4% and 0.0%
  Relative abundance, H2AV_1_19 K7acK11ac: 0.0% and 0.0229%
  Relative abundance, H2AV_1_19 K7acK15ac: 0.0% and 0.0087%
  Relative abundance, H2AV_1_19 K11ac: 0.6% and 0.0%
  Relative abundance, H2AV_1_19 K11acK15ac: 0.0% and 0.237%
  Relative abundance, H2AV_1_19 K15ac: 1.7% and 0.0%
  Relative abundance, H2AV_1_19 unmod: 91.3% and 97.8%
  Relative abundance, H2AX_4_11 K5me1: 29.7% and 35.1%
  Relative abundance, H2AX_36_42 unmod: 100.0% and 99.1%
  Relative abundance, H2AZ_1_19 K4acK7acK15ac: 0.0004% and 0.0%
  Relative abundance, H2AZ_1_19 K4acK11ac: 0.45% and 0.0%
  Relative abundance, H2AZ_1_19 K4acK11acK15ac: 0.0%
  Relative abundance, H2AZ_1_19 K7acK11ac: 0.0%
  Relative abundance, H2AZ_1_19 K7acK11acK15ac: 0.0048% and 0.0%
  Relative abundance, H2AZ_1_19 K15ac: 0.5% and 0.8%
  Relative abundance, H2AZ_1_19 unmod: 84.5% and 95.5%
  Relative abundance, H3_3_8 K4me1: 10.4% and 9.4%
  Relative abundance, H3_3_8 unmod: 89.4% and 89.2%
  Relative abundance, H3_9_17 K9ac: 0.3%
  Relative abundance, H3_9_17 K9acS10ph: 0.0019% and 0.0%
  Relative abundance, H3_9_17 K9acS10phK14ac: 0.0004% and 0.0006%
  Relative abundance, H3_9_17 K9me1K14ac: 8.6% and 6.4%
  Relative abundance, H33_27_40 K27me2: 8.5% and 6.5%
  Relative abundance, H33_27_40 K27me2K36me1: 14.2% and 9.7%
  Relative abundance, H33_27_40 K27me2K36me2: 24.3% and 31.1%
  Relative abundance, H33_27_40 K27me3: 5.7% and 2.7%
  Relative abundance, H33_27_40 K27me3K36me1: 2.0% and 0.9%
  Relative abundance, H33_27_40 K27me3K36me2: 4.1% and 6.3%
  Relative abundance, H33_27_40 K27me3S28ph: 0.0%
